Source: article PMC4336329 (PLoS ONE, 2015)
The campaign covered roughly 310,000 compounds. About 2,200 (0.71%) showed an effect of 50% or more. Effects have a minus sign here. The list shows a part of the results.

target: human ether-à-go-go-related gene (hERG) potassium channel (human, UniProt Q12809); test: primary screen, population patch clamp on CHO cells stably expressing hERG
Sequence (Q12809 whole entry, looked up): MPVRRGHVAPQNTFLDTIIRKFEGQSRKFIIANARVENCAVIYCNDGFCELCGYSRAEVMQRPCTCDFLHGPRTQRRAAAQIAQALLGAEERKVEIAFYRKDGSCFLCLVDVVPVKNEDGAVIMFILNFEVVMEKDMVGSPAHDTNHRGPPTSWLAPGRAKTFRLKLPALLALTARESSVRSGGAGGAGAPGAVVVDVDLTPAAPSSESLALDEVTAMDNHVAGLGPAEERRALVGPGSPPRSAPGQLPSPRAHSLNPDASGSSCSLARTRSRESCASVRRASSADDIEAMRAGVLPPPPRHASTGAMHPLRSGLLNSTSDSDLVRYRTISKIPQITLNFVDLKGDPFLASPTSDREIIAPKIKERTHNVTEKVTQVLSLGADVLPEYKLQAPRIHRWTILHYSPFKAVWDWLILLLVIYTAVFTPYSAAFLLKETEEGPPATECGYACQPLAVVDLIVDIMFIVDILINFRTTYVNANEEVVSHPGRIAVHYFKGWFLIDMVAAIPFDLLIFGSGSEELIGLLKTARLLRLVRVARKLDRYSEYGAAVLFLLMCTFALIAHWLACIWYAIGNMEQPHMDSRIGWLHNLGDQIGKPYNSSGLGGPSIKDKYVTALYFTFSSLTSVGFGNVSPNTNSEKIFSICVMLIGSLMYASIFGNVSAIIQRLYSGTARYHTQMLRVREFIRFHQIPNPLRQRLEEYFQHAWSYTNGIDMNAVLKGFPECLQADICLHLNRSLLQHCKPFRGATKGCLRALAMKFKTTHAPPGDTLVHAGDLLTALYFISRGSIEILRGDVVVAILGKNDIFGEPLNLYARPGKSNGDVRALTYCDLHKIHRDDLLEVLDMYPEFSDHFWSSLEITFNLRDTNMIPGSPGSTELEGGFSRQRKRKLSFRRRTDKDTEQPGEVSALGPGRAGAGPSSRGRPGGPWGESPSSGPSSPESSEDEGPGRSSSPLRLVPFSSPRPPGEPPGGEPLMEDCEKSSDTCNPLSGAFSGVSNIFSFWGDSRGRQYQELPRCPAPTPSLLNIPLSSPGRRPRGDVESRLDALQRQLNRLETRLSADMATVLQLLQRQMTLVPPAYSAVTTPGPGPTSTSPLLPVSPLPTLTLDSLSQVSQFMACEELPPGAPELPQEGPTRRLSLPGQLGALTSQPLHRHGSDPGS

Compound	hERG current change (%, negative = inhibition) at 1uM [%]
Cc1ccc(CC(=O)Nc2nncs2)cc1	17.2
COCCNS(=O)(=O)c1cccn1-c1ncc(C(F)(F)F)cc1Cl	10.7
O=C(Oc1cccc(C(=S)N2CCOCC2)c1)c1ccccc1	17.9
Cc1ccc(OCC(=O)NC2CC(C)(C)NC(C)(C)C2)cc1C	12.4
O=C(CCc1ccccc1)Nc1ccc2c(c1)C(=O)OC2	12.2
CCOC(=O)c1c(NC(=O)CC2Nc3ccccc3NC2=O)sc(C)c1C (stereo not shown)	15.2
CC(=O)c1ccc2c(c1)C1C=CCC1C(c1ccncc1)N2 (stereo not shown)	-4.24
CC(C(=O)Nc1cccc([N+](=O)[O-])c1)n1nnc2ccccc21 (stereo not shown)	-12.1
COc1cccc(OC)c1C(=O)N1CCN(Cc2ccccc2C(F)(F)F)CC1.O=C(O)C(=O)O	8.04
C[C@@H]1CCC(=O)N(C[C@@H](C)CSc2ccccc2)CC1	-7.31
NC(=O)c1cc2cc([N+](=O)[O-])ccc2oc1=O	2.22
Nc1cc(C(=O)c2ccccc2)ccc1[N+](=O)[O-]	14.9
CCOC(=O)c1ccc(CNC(=O)Cn2nnc(-c3ccccc3F)n2)o1	-8.69
O=C(Nc1ccc(F)cc1F)N1CCN(CCc2ccccc2)CC1	8.82
CC(NC(=O)C(C)N1CCN(Cc2ccccc2)CC1)c1ccccc1 (stereo not shown)	20
COc1ccc(C(=O)NCc2nnc(SCC(=O)N3CCOCC3)o2)cc1OC	14.1
O=C(NCc1cccs1)[C@@H]1CSC2c3ccccc3C(=O)N21 (stereo partly shown)	7.24
CN1CCN(c2nc(Nc3ccccc3)nc(N)c2[N+](=O)[O-])CC1	-10.2
Cc1ccc(CSc2ncnc3c2cnn3Cc2ccccc2)cc1	-6.35
Cc1ccc(S(=O)(=O)NCCc2ccncc2)cc1C	14
COC(=O)c1ccc(S(=O)(=O)N2CCCCCC2)cc1	6
CCCc1nc2sc(C(=O)OCC)c(N)c2c2c1COC(C)(C)C2	2.39

Compound	hERG current change (%, negative = inhibition) at 1uM [%]
O=C(O)COCC(=O)Nc1ccc2c(c1)CCC2	14.3
CCOCCCNC1=C(Cl)C(=O)c2ccccc2C1=O	7.84
COc1ccc(S(=O)(=O)NCC2CCCO2)cc1C(=O)O (stereo not shown)	18.5
O=C(c1ccccc1)N1N=C(c2ccco2)CC1c1cccs1 (stereo not shown)	8.01
Cc1cccc(C)c1NC(=O)C1CC2CCC1C2 (stereo not shown)	6.99
CN(C)C(=O)[C@H]1C[C@H]1[C@@H](O)[C@H](CO)NC(=O)[C@H](Cc1ccccc1)NC(=O)OC(C)(C)C	7.02
O=C(NCc1cccc(Cl)c1)N1CCN(S(=O)(=O)c2ccccc2F)CC1	3.82
CC(=O)Nc1ccc(S(=O)(=O)NCc2nnnn2-c2ccc(F)cc2)cc1	10.3
Cc1ccc(C(=O)COC(=O)CCC(=O)NC2CCCCC2)cc1C	16
Fc1ccccc1CNc1cc(Cl)cc(Cl)c1	11.7
Cc1ccc(-n2c(=O)[nH]cc(C(=O)Nc3ccc4c(c3)OCCO4)c2=O)cc1C	8.08
O=C(NC1CCCCC1)C12CC3CC(CC(Cl)(C3)C1)C2	16.6
CC1(C(=O)N(CC(=O)NC2CCCC2)Cc2ccccc2)CC(=O)N=C2C=CC=CN21 (stereo not shown)	11.6
COc1ccc(NC(=O)N(CCO)Cc2cc3c(C)cc(C)cc3[nH]c2=O)cc1	4.72
COC(=O)c1ccc(NC(=O)CN(c2ccc(C)cc2)S(=O)(=O)c2c(C)nn(C)c2C)cc1	13.4
CCOC(=O)c1sc2ncnc(N3CCN(C(=O)OCC)CC3)c2c1C	-6
CN(CC(=O)Nc1ccc(Cl)cc1)C(=O)c1ccc(COc2ccccc2)cc1	8.06
COc1ccc(OC)c(C2(O)CSC(=Nc3cccnc3)N2Cc2ccco2)c1 (stereo not shown)	3.79
Cc1ccc2c(n1)CC(C)(C)CC2=O	8.51
Cc1cccc(Cn2c(SCCN3CCCCC3)nc3c2c(=O)[nH]c(=O)n3C)c1	-80.7
O=[N+]([O-])/C=C/c1cn(Cc2ccc(Cl)cc2)c2ccccc12	12.7
CC(Oc1coc(CN2CCN(C(=O)c3ccco3)CC2)cc1=O)c1ccccc1 (stereo not shown)	11.8

Compound	hERG current change (%, negative = inhibition) at 1uM [%]
CCOc1ccc(OCCOCCNCCOC)cc1	10.1
O=C(OCc1ccc(Br)cc1)c1cccnc1	10.4
CCSc1nnc([C@@H](N)Cc2ccccc2)o1.Cl	6.48
C=CCOC(=O)C1=C[C@H](c2cn(C(C)=O)c3ccccc23)[C@@H](CCCO)[C@H](OCC)O1	-0.212
CC(Sc1nc2cc(Cl)ccc2s1)C(=O)Nc1ccc2c(c1)OCO2 (stereo not shown)	9.42
CCOc1ccccc1C1CC(c2cccc(NS(C)(=O)=O)c2)=NN1C(=O)c1ccccc1 (stereo not shown)	-14.9
O=C(NNC(=O)c1ccccc1[N+](=O)[O-])Nc1ccccc1C(F)(F)F	15.4
Cc1noc(C)c1C(=O)Nc1ccc(S(=O)(=O)N2CCCCC2)cc1	10.5
O=C(CN1CCN(C(=O)c2ccco2)CC1)Nc1cc(Cl)ccc1Cl	-8.91
CC(=O)Nc1ccc2nc(-c3ccco3)[nH]c2c1	4.83
Cc1ccc(S(=O)(=O)N2CCC(C(=O)Nc3cc(C(F)(F)F)ccc3N3CCOCC3)CC2)cc1C	8.78
COC(=O)C(/C=N/OCc1ccc([N+](=O)[O-])cc1)NC(=O)c1cccc(Cl)c1 (stereo not shown)	5.64
COc1cc(OC)cc(C(=O)OCC(=O)NC(c2ccccc2)c2ccccc2)c1	7.59
O=C(c1cc2cc([N+](=O)[O-])ccc2oc1=O)N1CCOCC1	7.86
Cc1ccc(N(CC(=O)N/N=C/c2cccs2)S(C)(=O)=O)cc1	7.64
O=C1c2ccccc2-c2onc3c(N4CCN(CCO)CC4)cc(N4CCN(C(=O)c5ccco5)CC4)c1c23	4.31
CCOC(=O)[C@H]1[C@H]2COc3ccc(Br)cc3[C@@H]2N2C(=O)CN(CC3CCCO3)C(=O)[C@@]12C (stereo partly shown)	2.38
CC(=O)c1ccc(NC(=O)C2CCN(S(=O)(=O)c3ccc4c(c3)N(C(C)=O)CCO4)CC2)cc1	12.1
CCOC(=O)c1cnc2c(C)c(Cl)ccc2c1N1CCN(CC)CC1.Cl	10.4
Cc1n(CC(=O)c2ccc(F)cc2)c2ccccc2[n+]1C.[Br-]	14.5
Cc1nc(Cl)c(C(=O)NC(=O)NCc2ccccc2)c(C)c1Cl	7.92
Cc1cc(C(=O)CSc2nc(N)cc(N)n2)c(C)n1CCc1ccc(F)cc1	-6.2

Compound	hERG current change (%, negative = inhibition) at 1uM [%]
N#Cc1ccc(C(=O)N/N=C/c2cn(CC(=O)O)c3ccccc23)c(F)c1	2.12
O=[N+]([O-])c1cccnc1NCCNc1ncc(C(F)(F)F)cc1Cl	8.83
CCc1c(C(=O)N/N=C/c2cn[nH]c2-c2ccc(F)cc2)csc1C	16.4
Cc1ncsc1CCC(=O)N1CCCC(C(=O)c2cccc(Cl)c2)C1 (stereo not shown)	15.7
O=C1C2C3C=CC(C3)C2C(=O)N1c1ccc(Cc2ccncc2)cc1 (stereo not shown)	0.626
Cc1cccc(NC(=O)COC(=O)c2ccc([N+](=O)[O-])o2)c1C	4.18
CCc1cc(OCCCCNCc2ccccc2)ccc1Cl.O=C(O)C(=O)O	3.91
Cc1cc(OC(C)C(=O)N(Cc2ccco2)C2CCS(=O)(=O)C2)cc(C)c1Cl (stereo not shown)	0.951
COc1ccc(NC(=S)NCCc2ccccc2)c(OC)c1	-5.28
CCN(CC)C(=O)c1ccc(NC(=O)CSc2nnnn2-c2cc(OC)ccc2OC)cc1	5.88
Cc1nnc2sc(SCC(=O)Nc3ccc(Cl)cc3)nn2c1=O	0.312
COc1cccc(C2CC(c3ccccc3Cl)n3ncnc3N2)c1 (stereo not shown)	11
Cc1sccc1C1C(C#N)=C(N)SC(N)=C1C#N	15.4
CCC(C)NC(=S)N(CCc1ccccc1)Cc1cc2cc(OC)c(OC)cc2[nH]c1=O (stereo not shown)	6.75
O=C(Nc1cccc(S(=O)(=O)Nc2ccc(Cl)cc2)c1)c1ccc(Cl)nc1	11.4
O=C1NC(=Nc2ccc(F)cc2)CS1	15.8
Cc1cc(/C=N/NC(N)=O)c(C)n1-c1ccc(F)cc1	3.43
Cc1sc2nc(CC(=O)N3CCCC3)[nH]c(=O)c2c1C	2.77
O=C(N/C=N/O)C(c1ccccc1)c1ncc(C(F)(F)F)cc1Cl (stereo not shown)	7.83
O=C(NCCC1CCCCN1S(=O)(=O)c1ccc(F)cc1)C(=O)NC1CC1 (stereo not shown)	11
COc1ccc(N2CC(C(=O)N/N=C/c3cc([N+](=O)[O-])ccc3O)CC2=O)cc1 (stereo not shown)	5.91
CCCn1c(N)c(N(CCOC)C(=O)/C=C/c2cccc(Cl)c2)c(=O)[nH]c1=O	24.8
